Measurements published in paper PMC6919601, “Identification of Plasmodium dipeptidyl aminopeptidase allosteric inhibitors by high throughput screening” (PLoS ONE, 2019).
Among all 110,000 compounds or so, about 230 (0.21%) showed an effect of 50% or more. This is one part of the list.

Molecular target: DPAP1 (Plasmodium falciparum, UniProt Q8IIJ9)
Test: primary screen, percent inhibition; read by cleavage of a fluorogenic dipeptide substrate; higher = more effect of the substance
Design: species or system P. falciparum D10 trophozoite lysates; single well
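Further: 30 min substrate incubation versus DMSO and 10 µM JCP410 controls.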

DPAP1, sequence (Q8IIJ9 whole entry, looked up): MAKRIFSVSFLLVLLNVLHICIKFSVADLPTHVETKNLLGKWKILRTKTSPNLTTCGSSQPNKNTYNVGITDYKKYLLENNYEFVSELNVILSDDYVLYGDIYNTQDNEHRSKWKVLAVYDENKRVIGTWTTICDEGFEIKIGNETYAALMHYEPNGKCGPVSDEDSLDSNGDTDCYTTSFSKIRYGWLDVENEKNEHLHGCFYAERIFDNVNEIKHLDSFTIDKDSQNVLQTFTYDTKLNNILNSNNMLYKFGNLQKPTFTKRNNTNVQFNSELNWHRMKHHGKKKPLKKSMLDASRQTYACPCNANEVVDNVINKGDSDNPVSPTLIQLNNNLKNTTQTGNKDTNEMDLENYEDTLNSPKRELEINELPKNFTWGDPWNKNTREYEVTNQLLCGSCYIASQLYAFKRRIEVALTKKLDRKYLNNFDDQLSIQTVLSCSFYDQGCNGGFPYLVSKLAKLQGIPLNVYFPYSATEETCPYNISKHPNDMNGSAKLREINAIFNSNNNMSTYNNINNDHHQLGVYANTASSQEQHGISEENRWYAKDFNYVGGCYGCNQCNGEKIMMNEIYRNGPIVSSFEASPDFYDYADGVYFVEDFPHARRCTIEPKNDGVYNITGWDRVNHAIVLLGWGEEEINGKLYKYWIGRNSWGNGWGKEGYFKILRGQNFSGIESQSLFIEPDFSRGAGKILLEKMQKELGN

In order of falling “% Inhibition @ 10 uM” value:
1. CSc1ccc(C2CC(=O)N3CN(C)CSC3=C2C#N)cc1 (stereo not shown)  75%
2. N#CC1=C(N)NC(SCC(=O)c2ccc(Cl)cc2)=C(C#N)C12CCCCC2  31.7%
3. Cc1cccc(C)c1OCC(=O)Nc1sc2c(c1C#N)CCCC2  12.2%
4. Cc1ccc(Cn2c(C(=O)O)c(CNC3CCCC(C)C3C)c3ccc(C)cc32)cc1 (stereo not shown)  9.74%
5. COc1ccc(CNCc2cccc(Oc3ccccc3)c2)cc1  7.63%
6. COc1ccc(NC2=NC(=O)/C(=C/c3ccc(N4CCCC4)o3)S2)cc1  6.71%
7. O=C1Nc2ccccc2C(=O)C1(F)Cc1ccccc1 (stereo not shown)  6.29%
8. CN(C)c1ccc(C2CC(c3ccc(Cl)cc3)=NN2S(C)(=O)=O)cc1 (stereo not shown)  6.24%
9. COCCCNS(=O)(=O)c1ccc2[nH]c(O)nc2c1  5.62%
10. CC(C)c1ccc(OCCN2CCNCC2)cc1  5.3%
11. COc1ccc(-c2ccc3c(N)c(C(=O)Nc4nc5ccccc5s4)sc3n2)cc1OC  4.97%
12. Cc1ccc(C(=O)N2CC3(C(C)C)CN(C(=O)c4ccc(C)cc4)CC(C(C)C)(C2)C3=O)cc1  3.94%
13. COc1ccc(OC)c(NC(=O)c2cccc(C(=O)Nc3cc(OC)ccc3OC)c2)c1  3.93%
14. CCOC(=O)C1=C(c2ccc(CC)cc2)C(=O)c2ccccc2C1=O  3.83%
15. Cc1cc(Cl)ccc1OCC(=O)NC1CCCCC1  3.68%
16. CC1(C)CC(NC(=O)c2cc(Cl)c(Cl)cc2C(=O)O)CC(C)(C)N1  3.66%
17. CC(=O)N/C(=C\c1ccc(Br)s1)C(=O)O  3.47%
18. COC(=O)c1sccc1NC(=O)c1cc(C2CC2)nc2c1c(C)nn2-c1ccc(C)cc1  3.37%
19. CCN(CC)C(=O)C1CCCN(C2CC(=O)N(c3ccccc3)C2=O)C1 (stereo not shown)  3.33%
20. N#Cc1nc(/C=C/c2cccs2)oc1NCCc1ccccc1  3.27%
21. Cc1nc(-c2ccc([N+](=O)[O-])cc2)cs1  3%
22. CSc1ccc(Cl)c(C(=O)Nc2sc(C)c(C)c2C(N)=O)c1  2.99%
23. COc1ccc(-n2nnc(-c3nc(-c4ccccc4)no3)c2N)cc1Cl  2.71%
24. COc1ccc(N2C(=O)CC(Sc3nc(C)ccc3C#N)C2=O)cc1 (stereo not shown)  2.67%
25. Cc1ccccc1CN(CC(=O)NCc1ccccc1)S(=O)(=O)c1ccc(Cl)cc1  2.4%
26. O=C(O)c1ccccc1C(=O)Nc1cccc(-c2cn3ccsc3n2)c1  2.38%
27. O=S(=O)(NCCOc1ccccc1Cl)c1ccc2ccccc2c1  2.18%
28. CC(C)Sc1nc(N2CCOCC2)c2c(c1C#N)CC(C)(C)OC2  2.18%
29. CCC(C)NC(=O)c1ccc(CS(=O)(=O)c2ccc(OC)cc2)o1 (stereo not shown)  2.14%
30. CCCN(CCC)CCNC(=O)C(Cc1ccccc1)NS(=O)(=O)c1cccc2nsnc12 (stereo not shown)  2%
31. Cc1cccc(OCC(=O)Nc2cc(C)ccn2)c1  1.93%
32. CC1(C)CC(=O)c2c(nc3ccc(Br)cc3c2N)C1  1.9%
33. CC(C)(C)c1ccc(C(=O)Nc2ccc(S(=O)(=O)N3CCCC3)cc2)cc1  1.84%
34. O=C(NCc1ccccn1)c1c(F)cccc1F  1.64%
35. Cc1ccc(OCCCCCc2c(C)n[nH]c2C)cc1  1.35%
36. Cc1ccc(S(=O)(=O)N2CCOCC2)cc1C  1.25%
37. COc1ccccc1-c1cc(/N=C(/NCc2ccccc2)SC)[nH]n1  1.12%
38. COc1ccccc1CN1COc2c(cc3c(C)c(C)c(=O)oc3c2C)C1  0.895%
39. O=C(NCCn1ccc2ccccc21)C12CC3CC(CC(C3)C1)C2  0.8%
40. Cc1ccc(C)c(NC(=O)CN(c2cccc3ccccc23)S(C)(=O)=O)c1  0.793%
41. C=CCOc1ccc(/C=C2\SC(=N)N(c3nonc3N)C2=O)cc1OCC  0.727%
42. COCCCN1C(=O)S/C(=C/c2cc(OC)c(O)c(OC)c2)C1=O  0.709%
43. O=C1C2CCCCN2C(=O)N1CCCCN1CCN(c2cccc(Br)c2)CC1 (stereo not shown)  0.408%
44. O=C(C(Cc1ccccc1)N1C(=O)c2ccccc2C1=O)N1CCN(CCO)CC1 (stereo not shown)  0.408%
45. Cc1ccc(-n2ncnc2-c2cccnc2)cc1Cl  0.392%
46. Cc1ccc(-n2nc3c(N4CCC(C(=O)NCCCOC(C)C)CC4)nnc(C)c3c2C)cc1  0.186%
47. COc1ccc(-c2cc(C(F)F)n3ncc(C(=O)Nc4cc(OC)c(OC)c(OC)c4)c3n2)cc1  0.115%
48. CCN1CCC(N[C@H]2CCCCNC2=O)CC1  -0.0953%
49. Cc1nn(-c2ccccn2)c2c1C(O)=C(/C=N/c1ccccc1C(=O)O)CC2  -0.25%
50. CCc1ccc(OCC(=O)NCCc2ccccc2)cc1  -0.274%
51. COc1ccc(N(C(=O)c2ccccc2)C2=CC3CCC(C2)N3C)cc1 (stereo not shown)  -0.28%
52. CCc1ccc2nc(N3CCC(C(=O)NCCC4=CCCCC4)CC3)sc2c1  -0.406%
53. COCc1cc(C)nc(Nc2ccc(C)c(C)c2)c1C#N  -0.436%
54. CC(C)CN(CC(C)C)c1ncnc2c1cnn2-c1ccc(Cl)cc1  -0.438%
55. O=C1C2C3C=CC(C2C(=O)N1c1ccc(CCO)cc1)C1C(=O)N(c2ccc(CCO)cc2)C(=O)C31 (stereo not shown)  -0.687%
56. CC(Cc1ccccc1)[N+]1=NO/C(=N/C(=N/Cc2ccccc2)N(C)C)C1 (stereo not shown)  -0.85%
57. Cn1c(=O)[nH]c(=O)c2c1nc(N1CCc3ccccc3C1)n2CCSc1nc2ccccc2s1  -0.946%
58. O=C(CN1C(=O)S/C(=C\c2ccccn2)C1=O)Nc1ccc(F)cc1  -1.22%
59. O=C(CNS(=O)(=O)c1ccccc1)NCc1ccccc1Cl  -1.22%
60. O=C1NN=C2CC34CCC12CC3=NNC4=O  -1.29%
61. COc1ccccc1C1C(C#N)=C(N)Oc2cc(O)ccc21 (stereo not shown)  -1.37%
62. CCOc1ccc(CCNC(=O)NCc2noc3ccccc23)cc1  -1.39%
63. COc1ccc(CN2CCN(c3ccccn3)CC2)c(C)c1C  -1.77%
64. COC(=O)c1cccc(NC(=O)Cc2ccccc2)c1  -1.82%
65. Cc1nccn1Cc1cccc2ccccc12  -1.99%
66. Cc1ccccc1N(CC(=O)N1CCc2ccccc2C1)S(=O)(=O)c1ccccc1  -2.03%
67. Cc1ccc(/N=C/c2c(C)nn(-c3ccc(F)cc3)c2O)c(C)c1  -2.16%
68. C(=C\c1nc2ccccc2n1Cc1ccccc1)/c1ccco1  -2.28%
69. CS(=O)(=O)N(Cc1ccc(C(=O)N2CCN(c3ccccc3)CC2)cc1)c1ccccc1  -2.28%
70. Cc1cccc(OCCCCCCN2CCOCC2)c1  -2.28%
71. COc1ccc(S(=O)(=O)N(CC(=O)NCC2CCCO2)c2ccc(C)cc2)cc1 (stereo not shown)  -2.28%
72. CC[C@@H](C)[C@H](NC(=O)c1ccccc1)C(=O)N[C@@H](CCc1ccccc1)C(=O)COCc1ccccc1  -2.35%
73. CCc1cc2c(=O)n(-c3ccccc3)c(SCC(N)=O)nc2s1  -2.8%
74. C=CCc1ccc(OCCn2c(C(O)CC)nc3ccccc32)c(OC)c1 (stereo not shown)  -3.08%
75. Cc1nnc(N=Nc2c(O)n(Cc3ccccc3)c3ccccc23)n1N  -3.41%
76. COc1ccc(CCC(=O)Nc2cc(Cl)ccc2Cl)cc1  -3.49%
77. Cn1nc(C(=O)NCc2ccco2)c2c1-c1ccccc1S(=O)(=O)C2  -3.53%
78. COc1ccc(CCn2c(=O)c3cccnc3n(Cc3ccc(C)cc3C)c2=O)cc1OC  -3.66%
79. CC1=C(C(=O)NCCN2CCC(Cc3ccccc3)CC2)C2(CCCCC2)OC1=O  -3.7%
80. COc1ccc2c(CNCc3cc(OC)c(OC)c(OC)c3)c(C(=O)O)[nH]c2c1  -3.86%
81. COc1ccc(CC(=O)Nc2ccc(C)c(F)c2)cc1  -3.95%
82. COc1ccc(NC(=O)c2ccc(Br)cc2)c2cccnc12  -4.26%
83. O=C(c1ccco1)N1CCN(C(=O)C(c2ccccc2)N2Cc3ccccc3C2=O)CC1 (stereo not shown)  -4.38%
84. O=C1CCCc2c1[nH]c1ccc(F)cc21  -4.61%
85. CCOC(=O)c1c(NC(=O)c2cnn3c(C(F)F)cc(-c4ccccc4)nc23)sc2c1CCC2  -4.62%
86. COCCNC(=O)CCNS(=O)(=O)c1cc(Br)cnc1N  -4.69%
87. O=S(=O)(c1ccccc1F)N1CCN(C(c2ccccc2)c2ccccc2)CC1  -4.71%
88. CN(C)c1nc2c(c(=O)n(C)c(=O)n2C)n1CC(O)COc1ccccc1 (stereo not shown)  -4.78%
89. Brc1ccc(OCc2nc(-c3ccc(-n4cccc4)cc3)no2)cc1  -5.11%
90. CCCCN(CCCC)S(=O)(=O)c1c[nH]c(C(=O)OC)c1  -5.61%
91. OCC1CCCN1Cc1ccc(Br)cc1 (stereo not shown)  -5.65%
92. CC(C)c1ccc(-n2nnc(-c3nc(-c4ccccc4)no3)c2N)cc1  -5.65%
93. O=C(Nc1ccc(NC(=O)c2ccco2)c(Cl)c1)c1ccccc1  -5.85%
94. CC(C)Cn1cc(NC(=O)N(C)C2CCCCC2)c2ccccc2c1=O  -6.33%
95. CCOc1ccc(NC(=O)CN2C(=O)S/C(=C/c3cc(C)n(C(C)C)c3C)C2=O)cc1  -6.74%
96. CCC/C(CC(C)C)=C(/C#N)C(=O)OCC  -6.99%
97. CC1CCC(C(C)C)C(OCC(O)CN2CCOCC2)C1 (stereo not shown)  -7.32%
98. Cc1ccccc1C(=O)Nc1cc2c(s1)CCCC2  -7.34%
99. O=C1c2ccccc2C(=O)N1CC(=O)N1c2ccccc2CCc2ccccc21  -8.06%
100. O=C(O)c1ccc(NC2=C(Cl)C(=O)N(c3ccccc3)C2=O)cc1  -8.35%
